# Measurements as given in publication PMC4336329 (PLoS ONE, 2015).
# Out of some 310,000 compounds screened, about 14,000 (4.5%) showed an effect of 50% or more. The effect is printed as a negative number. Some of the results follow.
# Biological target: human ether-à-go-go-related gene (hERG) potassium channel (human, UniProt Q12809)
# Test: primary screen, population patch clamp on CHO cells stably expressing hERG
# 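Further: peak tail current of the secondary pulse compared with the same well before compound.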
# Chain of human ether-à-go-go-related gene (hERG) potassium channel (Q12809 whole entry, looked up): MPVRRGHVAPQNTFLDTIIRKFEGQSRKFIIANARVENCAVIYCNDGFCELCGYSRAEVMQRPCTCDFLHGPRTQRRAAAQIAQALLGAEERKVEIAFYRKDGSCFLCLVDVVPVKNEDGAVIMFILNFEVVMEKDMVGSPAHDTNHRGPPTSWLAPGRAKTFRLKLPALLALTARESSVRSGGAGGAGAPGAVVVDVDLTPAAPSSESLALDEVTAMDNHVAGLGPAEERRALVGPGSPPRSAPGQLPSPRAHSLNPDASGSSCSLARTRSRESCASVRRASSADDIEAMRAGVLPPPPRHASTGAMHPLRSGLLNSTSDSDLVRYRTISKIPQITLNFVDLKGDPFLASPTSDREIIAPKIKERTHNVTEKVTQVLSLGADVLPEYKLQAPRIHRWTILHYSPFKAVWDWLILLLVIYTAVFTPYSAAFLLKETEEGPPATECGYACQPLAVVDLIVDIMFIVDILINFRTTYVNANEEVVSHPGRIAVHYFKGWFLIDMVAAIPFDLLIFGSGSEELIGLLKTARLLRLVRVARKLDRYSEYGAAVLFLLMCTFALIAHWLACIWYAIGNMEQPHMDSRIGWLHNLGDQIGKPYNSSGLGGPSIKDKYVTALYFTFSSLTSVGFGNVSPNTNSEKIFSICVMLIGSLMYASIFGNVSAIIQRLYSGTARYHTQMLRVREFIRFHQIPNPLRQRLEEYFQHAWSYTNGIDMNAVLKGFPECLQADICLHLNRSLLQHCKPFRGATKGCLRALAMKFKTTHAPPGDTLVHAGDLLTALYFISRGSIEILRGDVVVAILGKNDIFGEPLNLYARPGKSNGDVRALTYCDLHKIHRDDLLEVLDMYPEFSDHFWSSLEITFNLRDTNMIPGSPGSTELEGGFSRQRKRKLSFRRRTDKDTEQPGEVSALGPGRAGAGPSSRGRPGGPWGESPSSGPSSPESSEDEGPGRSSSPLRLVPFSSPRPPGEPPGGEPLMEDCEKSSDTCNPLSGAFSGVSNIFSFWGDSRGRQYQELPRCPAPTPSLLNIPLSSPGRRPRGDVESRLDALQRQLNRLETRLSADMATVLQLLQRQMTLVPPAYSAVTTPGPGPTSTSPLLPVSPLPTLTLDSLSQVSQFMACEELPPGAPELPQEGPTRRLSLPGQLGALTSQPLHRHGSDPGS
row,Structure (SMILES),"hERG current change (%, negative = inhibition) at 10uM"
1,COc1ccc(N2CCN(C(=O)NC3CC(=O)N(c4ccc(OC)cc4)C3)CC2)cc1 (stereo not shown),-35.9%
2,NS(=O)(=O)c1ccc(NC(=O)COC(=O)c2cn(-c3ccccc3)nc2-c2ccccc2)cc1,1.42%
3,CC1CCCN(S(=O)(=O)c2cc(Cl)ccc2Cl)C1 (stereo not shown),-15.8%
4,Cn1c(C(O)c2ccc(Br)cc2)nc(Cl)c1Cl (stereo not shown),-8.65%
5,CN(CC(=O)NC(=O)NCc1ccco1)Cc1nc2ccccc2c(=O)[nH]1,-3.41%
6,COc1cccc(C2C3=C(N=c4s/c(=C\c5ccccc5O)c(=O)n42)c2ccccc2CC3)c1OC (stereo not shown),14%
7,O=C(NC(=S)Nc1nc(-c2ccccc2)cs1)c1ccco1,0.912%
8,CN(c1ccc(C(=O)NC2CCCC2)cc1)S(=O)(=O)c1ccccc1,-8.29%
9,COc1cccc(/C=N/NC(N)=S)c1OCc1cccc(Cl)c1,11.5%
10,O=C(NNC(=O)c1ccccc1[N+](=O)[O-])c1ccccc1[N+](=O)[O-],36%
11,CN1CCN(CC#Cc2ccccc2)CC1CCO (stereo not shown),14.4%
12,Cc1cccc(C(=O)NC(=S)NNC(=O)Cc2ccccc2)c1,3.66%
13,O=C(NCCc1ccccn1)c1cc(C(=O)C2CCCCC2)c[nH]1,-14.1%
14,CCCCn1c(=O)[nH]c(=O)c2c1nc(-c1cc(Cl)c(OC)c(OC)c1)n2C,16.2%
15,COc1cc(C(=O)Nc2sc3c(c2C(=O)O)CCC3)cc(OC)c1OC,13.2%
16,N#Cc1ccc(Cl)cc1NC(=O)COC(=O)c1cccc(S(=O)(=O)N2CCOCC2)c1,-42.1%
17,COc1cc(NC(=O)c2ccc(CNc3c(N4CCOCC4)c(=O)c3=O)cc2)cc(OC)c1,-1.92%
18,O=C(CSc1nc(O)c(Cc2ccccc2F)c(=O)[nH]1)N1CCCCCC1,18.2%
19,CCc1nc2oc3ccccc3c(=O)c2c(=O)n1Cc1ccccc1,18%
20,CCCCC(=O)NCCNc1nc2c(c(=O)n(C)c(=O)n2C)n1Cc1ccccc1,19.2%
21,O=C(OCC(=O)N1CCc2ccccc21)c1ccc[n+]([O-])c1,6.99%
22,Cc1ccc(C2C(C(N)=S)=C(N)OC3=C2C(=O)CC(C)(C)C3)cc1 (stereo not shown),1.11%
23,Cc1cc(-c2nnc(CCC(=O)NCc3cccc(C(F)(F)F)c3)o2)no1,5.69%
24,CCN(CC)CCN1C(=O)C(=O)/C(=C(/O)c2cnn(-c3ccccc3)c2C)C1c1ccc(C)o1 (stereo not shown),-6.63%
25,COc1ccc(C(=O)Nc2c(Cl)cc(Cl)cc2C(=O)N2CCC(C)CC2)cc1,-17.2%
26,CC(C)Nc1oc(-c2cccc3ccccc23)nc1C#N,2.18%
27,CC(C)(O)C#Cc1ccc(C(=O)NC2CCCCC2)s1,14.3%
28,CCN(CC)S(=O)(=O)c1ccc(OC)c(NC(=S)Nc2ccc(C)c(C)c2)c1,3.23%

row,Structure (SMILES),"hERG current change (%, negative = inhibition) at 10uM"
1,COC(=O)c1cc2ccsc2n1CC(=O)Nc1ccc(N(C)C)cc1,2.28%
2,COc1ccc(NC(=O)OC(CN2CCCCC2)C(F)(F)F)cc1 (stereo not shown),2.28%
3,CC(C(=O)N1CCc2ccccc21)N1CCN(c2cccc(C(F)(F)F)c2)CC1 (stereo not shown),-17.8%
4,c1ccc(-c2cn(CC3CCCCC3)nn2)cc1,-1.74%
5,C=CCSc1nnc2c(n1)OC(c1ccccn1)N(C(C)=O)c1ccccc1-2 (stereo not shown),-17.2%
6,Cc1ccc(NC(=O)CC2S/C(=N/c3nccs3)N(C)C2=O)c(C)c1 (stereo not shown),-15.3%
7,COc1cc(C(=S)N2CCOCC2)cc(OC)c1OC(=O)c1cc([N+](=O)[O-])cc([N+](=O)[O-])c1,-6.98%
8,CC(NC(=O)c1cccnc1)C(=O)[O-].[Na+] (stereo not shown),19.2%
9,NS(=O)(=O)c1cc(C(=O)OCC(=O)NNC(=O)c2ccccc2)ccc1Cl,9.4%
10,O=C(NCc1nc2ccccc2[nH]1)c1cc2ccccc2oc1=O,1.39%
11,CC(=O)c1ccc(-n2nnnc2SCC(=O)NNC(=O)c2ccco2)cc1,1.72%
12,COc1ccc(C2(c3ccc(OC)cc3)NC(=O)N(CC(=O)Nc3ccccc3C)C2=O)cc1,-18.8%
13,CCc1ccc(C(=O)OCC(=O)N2CCCCCC2)cc1,-2.11%
14,CC1Oc2ccccc2N(Cc2ccc(F)cc2)C1=O (stereo not shown),-20.8%
15,COc1ccc(/C=C/C(=O)C2CC2)cc1COc1c(C)cccc1C,-10.5%
16,Cc1sc2nc(COC(=O)c3ccc(Cl)c(N)c3)[nH]c(=O)c2c1C,4.79%
17,O=C(NCc1cccs1)Nc1ccc2c(c1)OCO2,-4.71%
18,CCOC(=O)N1CCN(CCC(=O)Nc2cc(OC)cc(OC)c2)CC1.Cl,-2.06%
19,CC1(C(=O)O)CCC(C(=O)N2CCCCC2)C1(C)C (stereo not shown),18.9%
20,Cc1cc(C)cc(N(CC(=O)NC2CCCCC2)C(=O)c2ccc(C)s2)c1,-7.26%
21,Cc1ccc([N+](=O)[O-])c(OCC(=O)OCC(=O)c2ccccc2)c1,20.4%
22,CCOCCOC(=O)C1=C(C)NC(=O)NC1c1ccc2c(c1)OCO2 (stereo not shown),13.6%
23,O=C(NCCOc1ccc2ccccc2c1)c1cncc(Br)c1,3.79%
24,CC1=C(C(=O)OCCBr)C(c2cccc3ccccc23)NC(=O)N1 (stereo not shown),17.5%
25,CN(c1ccccc1)S(=O)(=O)c1cccc(NC(=O)CSc2nncs2)c1,-34.4%
26,Cc1cccc(NC(=O)CSc2nnc(CSc3nc(C)cc(C)n3)n2Cc2ccco2)c1,16%
27,O=C(N/N=C/c1cccc(Br)c1)c1ccc(Br)cc1,1.35%
